# Experimental data reported in PubChem BioAssay AID889 (National Center for Advancing Translational Sciences (NCATS), 2007).
# Among all 75,000 compounds or so, about 15 (0.02%) were called active. The shares of active, inactive and inconclusive entries below differ from those in the screen. The call rests on the fitted dose curve; in most records, active means well fitted inhibition curve with a large enough effect in the main read-out, with a control signal flat (not every such curve was filed as active); inconclusive means small, poorly fitted or top-dose-only effect, or a change in a side signal; inactive means flat fitted curve, though single readings scatter. Where the call is inconclusive, the potency comes from a doubtful curve fit. “Side channel” marks fits to a control or component signal instead of the main read-out.
# Target: Caspase-7 (Homo sapiens) (UniProt P55210)
# Chain of UniProt P55210 (P55210 whole entry, looked up): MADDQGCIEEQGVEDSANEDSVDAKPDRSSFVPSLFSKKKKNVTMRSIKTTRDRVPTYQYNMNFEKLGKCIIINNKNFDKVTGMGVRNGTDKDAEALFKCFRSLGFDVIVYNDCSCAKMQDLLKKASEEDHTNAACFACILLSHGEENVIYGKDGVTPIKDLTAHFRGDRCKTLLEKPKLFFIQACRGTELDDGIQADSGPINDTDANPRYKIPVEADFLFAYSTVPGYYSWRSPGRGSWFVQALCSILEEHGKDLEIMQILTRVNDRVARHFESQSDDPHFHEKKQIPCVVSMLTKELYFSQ
# Experiment: qHTS Assay for Allosteric/Competitive Inhibitors of Caspase-7; on activity change, negative = inhibition: % of control where 0% means no effect
# Settings: recombinant caspase-7, Ac-DEVD-AFC fluorescence rate; activity change, negative = inhibition: at 57.5 µM (top of the series) unless noted
# Potency means the concentration at half of the fitted maximal effect; tags describe the fitted curve by direction and shape or compound fluorescence and quenching.
Compound,Potency,"activity change, negative = inhibition"
N#CCCn1c(=O)c(-c2cccs2)nc2cnc(Nc3ccccc3)nc21,"inconclusive: 3.16 µM [fluorescent, full curve]",–
CCS(=O)(=O)Nc1cc(-c2nc3cccnc3s2)ccc1C,inactive,–
Cc1cccc2cc(CN(CC3CCCO3)C(=O)c3ccncc3)c(=O)[nH]c12 (stereo not drawn),inactive,–
CN1CCN(c2ncc3nc(-c4ccccc4)c(=O)n(CCC#N)c3n2)CC1,"inconclusive: 7.94 µM [fluorescent, side channel, partial curve]",–
COCCn1c(=O)cnc2cnc(N3CCNCC3)nc21,"inconclusive: 25.1 µM [fluorescent, partial curve]",–
CN(C)c1ncc2nc(-c3cccc(C#N)c3)c(=O)n(C)c2n1,"inconclusive: 5.01 µM [fluorescent, full curve]",–
Oc1cccc(/C=N/c2c(-c3ccco3)nc3ccccn23)c1,"inconclusive: 6.31 µM [fluorescent, side channel, partial curve]",–
COCCCn1c(CCC(=O)O)ccc1-c1cccs1,"inconclusive: 15.8 µM [fluorescent, partial curve]",–
C=CCN1C(=O)/C(=C2/Sc3ccccc3N2CCCS(=O)(=O)O)SC1=S,"inconclusive: 25.1 µM [inhibitor, partial curve]",–
COCCn1c(N)c(C(=O)NCc2cccs2)c2nc3ccccc3nc21,"inconclusive: 12.6 µM [fluorescent, side channel, partial curve]",–
CCCN(CCC)c1nc2ccccc2nc1C(C#N)C(=O)OCCOC (stereo not drawn),"inconclusive: 25.1 µM [inhibitor, single point]",–
Cc1ccc2nc(NCCO)nc(-c3ccccc3)c2c1,"inconclusive: 10 µM [fluorescent, side channel, partial curve]",–
CCNc1ncc2nc(CCc3ccccc3)c(=O)n(-c3ccc(OC)cc3)c2n1,"inconclusive: 25.1 µM [inhibitor, single point]",–
COc1ccc(-c2nc3cnc(N4CCN(C)CC4)nc3n(C)c2=O)cc1,"inconclusive: 10 µM [fluorescent, side channel, partial curve]",–
COc1ccc(-c2nc3cnc(OC)nc3n(Cc3cccs3)c2=O)cc1,"inconclusive: 5.01 µM [fluorescent, side channel, full curve]",–
Cc1ccc(N2CCN(CCC(=O)O)CC2)cc1,–,inactive: -0.0516% [at 11.5 µM]
COc1ccc(CCNc2oc(-c3ccccc3OC)nc2C#N)cc1,inactive,–
O=C(Nc1ccc2c(c1)OCO2)C1CCCN(S(=O)(=O)c2cccs2)C1 (stereo not drawn),inactive,–
